According to the supplement of paper PMC3334620:
Whole data set: some 33,000 sequences, median “E-score (-0.5 to 0.5)” near -0.016, cut for the highest 2% near 0.31. The list shows a part of the results.

These sequences were tested against Cst6 (UniProt P40535) (assay: PBM E-score (8-mer binding enrichment) (E-score (-0.5 to 0.5)); higher = stronger / more preferred TF binding; most listed sequences are background and not binding sites). Settings: protein concentration: 200 nM; construct: GST-DNA-binding domain.
In short: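 For each ungapped eight-base word taken together with its reverse complement, the Universal PBM Analysis Suite assigned an E-score. Binding data came from GST-tagged yeast transcription factors, applied at about 100-200 nM, on universal all-10-mer Agilent arrays made double-stranded by primer extension. Fluorescent anti-GST marked bound protein, and scans were normalised with masliner.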

Sequence	PBM E-score
CCCTGACC	-0.0453
CACCACAG	-0.199
ACCAAACA	0.277
ACAGCCCC	-0.228
ACTCTGCA	-0.0716
GCGAGCCA	-0.137
CAGATCGG	-0.0878
CGTACAGC	-0.108
ATTATTGG	0.142
GCTAAAGC	-0.00731
CCTAGATC	-0.263
ATGGACAT	0.107
CCTCTTTA	-0.0798
GTAGTGTA	-0.0469
ACCATTTC	0.0835
CCCGTAAG	0.106
AACCCATC	-0.115
GCCCTCCC	-0.246
AGCGATAT	0.164
CAAAATAC	0.146
CCAATTGA	0.0692
GTTATTCA	0.188
ATGCACTA	-0.0417
GACCCAAA	0.117
TAAGTGAA	0.111

Sequence	PBM E-score
GGCAAGAC	-0.243
CGCCACCC	-0.236
ATCACCTG	0.0249
CAGCTATG	-0.161
CATGGACA	-0.152
AACAGGCG	-0.0909
GCGTGGCA	-0.0602
ATAATGTA	0.203
CAGTGTTA	0.185
GATCGACC	-0.229
ACCCGACC	-0.0976
TAGGGCAA	-0.149
CAGTCATA	0.123
CCGCTTGA	0.0541
GGCCTGAA	-0.122
GGAAACCA	-0.221
CAATCAAC	0.097
ACTTGTCG	-0.16
AGTTTCTC	0.12
AAATGTAA	0.302
ACAGCGTA	0.0363
GAAGGACA	-0.0021
ACTCTACG	-0.161
AGTGACAG	0.15
GATCAGAA	-0.0976

Sequence	PBM E-score
CATTCAGC	-0.0359
AAGGGCAA	-0.0652
ATACCCCG	-0.193
CATGTCCA	0.0668
GTCGCGCA	0.0467
CTACCCAA	0.0109
CTACAAAG	-0.0328
GCCCTGAC	-0.0555
TACACTGA	0.0464
GAAGCGAA	0.0593
ATGATTAA	0.329
TCACACGA	0.114
ACAGACTG	-0.0982
ACATTCGT	0.076
AGTATCGG	-0.161
CTCCAATA	0.053
CAATTAGG	0.0223
ACAAAGGA	0.0643
ATCGGCCG	-0.102
CACCTATA	0.0527
AGACGTCG	-0.103
GACGGTAA	0.181
TAGCCGCA	-0.00413
GTCATGGA	0.0321
CGGAAACC	-0.345

Sequence	PBM E-score
ACAAATGC	0.164
AGAAAACA	0.195
AAAGGACA	-0.029
AACGGGGT	-0.196
GTAAAGAC	0.112
CACTGAGC	0.0764
GTGAGAAC	-0.113
AGGGATCA	-0.164
ATTAATTC	0.274
AGCAACCC	-0.166
CCCTCAAA	-0.0665
GGCTTACC	-0.247
AAAACACT	0.117
CTTCACTC	-0.181
CGTTAAGC	-0.0782
AAAACGCC	0.268
GAGGGCCA	-0.28
CTGTTGCA	0.00189
AGACTGGC	-0.275
ACCTCTTC	-0.00669
GCTATCTA	-0.222
CATCGTTA	-0.00774
GACCTCAC	0.221
TCCCAGCA	-0.138
CATTGTGG	-0.128

Sequence	PBM E-score
ATTCATTA	0.244
CGGTATAA	-0.0227
AACAGATT	0.0568
AAGCCGTG	0.215
CGGGTTTC	0.0719
AGGCCTAC	-0.0984
ATATCCTG	-0.089
CGGTTAAC	-0.0675
CAGCCTTC	-0.138
GTACTGGA	0.0483
AGTCCCGC	-0.241
ACGTTGGA	0.0372
GAACGTAA	0.277
CCCTAACA	0.127
AAGCTGTC	-0.141
GAGTCTGC	-0.276
ACCTGCGC	-0.101
AGGGACGC	-0.177
AGGCATCG	-0.0261
AGGCCCTC	-0.262
AACGAGAT	-0.0118
CCAAGTAC	-0.159
AGAACGTC	0.142
GATTCTCA	0.0989
ACGATGAG	0.119

Sequence	PBM E-score
GTGTGCAA	-0.129
GAGACATA	-0.00422
CGATCACA	0.117
GCTGTTGA	0.269
CCCTAATA	-0.0994
GCATTCAA	0.0262
ACTCCCAA	-0.145
CTCGAAAG	-0.125
CGTTCTAG	0.00736
CTAGACAG	-0.119
ACTAGTAC	-0.0411
CAATGACA	0.341
CTACAGCA	-0.121
GAGACCAA	-0.0329
AATTAAGA	0.0948
GATCTTCA	0.0767
GCCTTTTA	0.042
ACTAAAAA	0.115
CGCCTCGC	0.168
CGCCCGTA	-0.322
ACCACGAG	-0.0646
AGCTTGTC	-0.0644
AATGATCG	0.0987
ATTTATAG	0.106
ATGGGACA	-0.204

Sequence	PBM E-score
GCACGGCC	0.23
ACTATGAT	0.161
ACATTAGC	0.0763
CATTAGAA	0.172
ACTTACTC	-0.0736
CATAAGTA	-0.0415
CGCCTGAG	-0.0809
GAAATAAA	0.251
CGACCGCG	-0.178
ACACACCT	0.0393
AATGGTAA	0.0856
CAAACTGA	0.048
CCACCCCA	-0.0583
CGGACGCA	-0.0966
ATATTACG	0.415
GGGCACCC	-0.255
ACCAGTAT	-0.143
TACCACTA	-0.0366
AAGAAACA	0.225
CAGGACAG	-0.178
ATCAAATC	0.192
AATTGAGA	0.193
